# According to the BET-seq Pho4 binding data (Le et al. 2018):
# This is one part of the list. The energies were worked out here from pooled read counts, against the library average; single values are noisy.
# Target: T1, Pho4 (S. cerevisiae) (UniProt P07270)
# T1 sequence: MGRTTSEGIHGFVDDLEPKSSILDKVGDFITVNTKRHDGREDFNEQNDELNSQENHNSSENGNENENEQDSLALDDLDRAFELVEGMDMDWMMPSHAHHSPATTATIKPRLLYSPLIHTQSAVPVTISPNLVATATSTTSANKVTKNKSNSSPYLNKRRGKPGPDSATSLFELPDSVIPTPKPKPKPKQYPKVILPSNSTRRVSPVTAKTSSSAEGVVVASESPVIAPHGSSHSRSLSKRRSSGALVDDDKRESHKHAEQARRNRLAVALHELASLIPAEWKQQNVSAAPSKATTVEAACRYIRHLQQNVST
# Assay: relative binding free energy (BET-seq); higher = weaker binding
# Conditions: reference: library average
row,Sequence,relative binding free energy
1,ATTTTCACGTGGGACA,0.2 kcal/mol
2,GGCGACACGTGGTTGG,0.12 kcal/mol
3,CATGTCACGTGTCTTG,0.17 kcal/mol
4,TTGAACACGTGAGTGC,0.29 kcal/mol
5,GGGGACACGTGAATTG,0.28 kcal/mol
6,GGGTTCACGTGTTAGT,0.35 kcal/mol
7,TGGAACACGTGGGTAA,-0.11 kcal/mol
8,GGGGTCACGTGAATAT,0.4 kcal/mol
9,AGAATCACGTGGGTTG,0.08 kcal/mol
10,CGGAACACGTGGATGG,0.09 kcal/mol
11,CTTAGCACGTGTGTTA,-0.22 kcal/mol
12,TACTGCACGTGTTATT,0.12 kcal/mol
13,CTTGCCACGTGGTGGT,-0.18 kcal/mol
14,CGGGTCACGTGCGGCG,-0.1 kcal/mol
15,TGGTACACGTGTGTAG,0.09 kcal/mol
16,TGTGACACGTGCGGCA,-0.06 kcal/mol
17,TGTGCCACGTGTAGCT,-0.11 kcal/mol
18,GTCTTCACGTGGTCGT,0.11 kcal/mol
19,TTGGGCACGTGTACTA,-0.08 kcal/mol
20,GCGGGCACGTGAGTTG,0.24 kcal/mol
21,TTTGACACGTGTGTTC,0.06 kcal/mol
22,AGGGGCACGTGTCGAG,-0.1 kcal/mol
23,GGAATCACGTGGGGGG,0.09 kcal/mol
24,GTTTCCACGTGGATGG,0.14 kcal/mol
25,ATTTACACGTGCTAGG,-0.05 kcal/mol
26,AATGGCACGTGTGAGC,-0.1 kcal/mol

row,Sequence,relative binding free energy
1,AGTTTCACGTGTTTAC,0.19 kcal/mol
2,CTTGTCACGTGTGAAT,0.07 kcal/mol
3,TTTGCCACGTGAGTTA,0.15 kcal/mol
4,TCTAACACGTGGTGGT,-0.15 kcal/mol
5,GTTTGCACGTGTAGTG,0.15 kcal/mol
6,TAGATCACGTGATGCG,0.25 kcal/mol
7,TTACTCACGTGTGTAA,0.25 kcal/mol
8,GGTTACACGTGATCAG,0.22 kcal/mol
9,GGTACCACGTGTGGCT,0.01 kcal/mol
10,TTTGCCACGTGTTTGG,-0.02 kcal/mol
11,TAGTTCACGTGGGACA,0.18 kcal/mol
12,TTTAACACGTGCGGGG,-0.07 kcal/mol
13,CGGGTCACGTGGTAAT,0.03 kcal/mol
14,TTGCACACGTGGTTTT,0 kcal/mol
15,TTGCGCACGTGTAATG,0 kcal/mol
16,GAGTGCACGTGGTTAA,0.04 kcal/mol
17,AAAGACACGTGGAGTG,0.08 kcal/mol
18,ATAGGCACGTGTGCAG,-0.27 kcal/mol
19,GTTTTCACGTGATGCG,0.32 kcal/mol
20,ATTTGCACGTGTATTA,0.06 kcal/mol
21,TCGTGCACGTGCGGGG,-0.11 kcal/mol
22,TGACTCACGTGATGTA,0.42 kcal/mol
23,TGAGGCACGTGAGTAG,0.1 kcal/mol
24,GGGGACACGTGACGGT,0.1 kcal/mol
25,AGTGGCACGTGTGTAG,-0.09 kcal/mol
26,GGCACCACGTGAGGGG,0.07 kcal/mol

row,Sequence,relative binding free energy
1,TGTGTCACGTGTAGTG,0.08 kcal/mol
2,GCTGGCACGTGTTATT,0.06 kcal/mol
3,AAAGGCACGTGGTGAT,-0.31 kcal/mol
4,TAGACCACGTGAGGGG,0.11 kcal/mol
5,AGTGGCACGTGGGTTT,-0.19 kcal/mol
6,TCGGGCACGTGGGCAG,-0.24 kcal/mol
7,TTGTGCACGTGTATGG,0.12 kcal/mol
8,GGATTCACGTGTTGCA,0.39 kcal/mol
9,TGTATCACGTGAGGTG,0.3 kcal/mol
10,TATGTCACGTGGAGGC,0.14 kcal/mol
11,TTAGGCACGTGGAATT,-0.01 kcal/mol
12,GTCGACACGTGATTGT,0.21 kcal/mol
13,CTTGTCACGTGAAGGG,0.24 kcal/mol
14,AGTTCCACGTGTGGTG,0.12 kcal/mol
15,TTATACACGTGTAAGG,0.06 kcal/mol
16,CAATACACGTGGGTGT,-0.06 kcal/mol
17,AGATGCACGTGGGCAT,-0.19 kcal/mol
18,CATTTCACGTGTTGAA,0.34 kcal/mol
19,AATGTCACGTGAGTTC,0.29 kcal/mol
20,GCAGTCACGTGTTTGG,0.13 kcal/mol
21,AGCGGCACGTGTATAG,-0.05 kcal/mol
22,CATTGCACGTGTGGAG,0.01 kcal/mol
23,CGCGCCACGTGGGGTT,-0.23 kcal/mol
24,AGTAACACGTGATATG,0.07 kcal/mol
25,ATGTCCACGTGGTGGG,-0.02 kcal/mol
26,CGTCGCACGTGGTCGG,-0.22 kcal/mol

row,Sequence,relative binding free energy
1,GAGGTCACGTGATGTA,0.25 kcal/mol
2,AATATCACGTGGATTA,0.11 kcal/mol
3,TTTAACACGTGAGGAG,0.26 kcal/mol
4,GTGTGCACGTGACTAT,0.22 kcal/mol
5,AAGGGCACGTGGGAGG,-0.15 kcal/mol
6,AGAATCACGTGATATG,0.31 kcal/mol
7,GGCATCACGTGTGATT,0.21 kcal/mol
8,ATAAGCACGTGAGTTT,0.3 kcal/mol
9,AGTTACACGTGGGACG,0.14 kcal/mol
10,GAGTTCACGTGGGTAC,0.09 kcal/mol
11,AAATTCACGTGGTAAT,0.27 kcal/mol
12,GTTGGCACGTGAATGT,0.2 kcal/mol
13,TAAGGCACGTGGCGTT,-0.21 kcal/mol
14,ATAGTCACGTGGTAGA,0.01 kcal/mol
15,TGGGTCACGTGTGGAA,0.18 kcal/mol
16,TTGGTCACGTGGACAT,0.18 kcal/mol
17,TTTGGCACGTGAGAAA,0.1 kcal/mol
18,AAGTGCACGTGTAGTG,0.09 kcal/mol
19,TTGCTCACGTGCGAGG,0.23 kcal/mol
20,AGGGGCACGTGGTGGT,-0.07 kcal/mol
21,GTTATCACGTGGCAGG,0.34 kcal/mol
22,CCGGGCACGTGTATTT,0.05 kcal/mol
23,GTTCTCACGTGGGTAT,0.17 kcal/mol
24,TCGTGCACGTGGGGCA,-0.3 kcal/mol
25,TTCTACACGTGAGAGG,0.34 kcal/mol
26,TTATGCACGTGGGTCA,-0.09 kcal/mol

row,Sequence,relative binding free energy
1,GGCCTCACGTGATGGG,0.31 kcal/mol
2,GGCATCACGTGTGGGG,0.25 kcal/mol
3,TTGTTCACGTGCTGGG,0.36 kcal/mol
4,AATGTCACGTGCATGG,0 kcal/mol
5,TCGAGCACGTGGCGGG,-0.19 kcal/mol
6,TCAGACACGTGTGTGA,0.15 kcal/mol
7,GGCGGCACGTGGAGTA,-0.1 kcal/mol
8,TGTATCACGTGGGGAG,-0.04 kcal/mol
9,GGGGTCACGTGGCCTT,0.14 kcal/mol
10,TAAGTCACGTGGAGAA,0.21 kcal/mol
11,TTGGACACGTGGTGAC,0.12 kcal/mol
12,TGAATCACGTGTTTAG,0.25 kcal/mol
13,CTTAGCACGTGTAGAT,0.23 kcal/mol
14,TTGGTCACGTGTTTTT,0.23 kcal/mol
15,GCGGGCACGTGGTAAG,-0.23 kcal/mol
16,CTGTCCACGTGGCGGG,0.01 kcal/mol
17,TCTTTCACGTGGTGTT,0.18 kcal/mol
18,CTTTACACGTGGAGTG,0.04 kcal/mol
19,GCGAGCACGTGTTTGT,-0.07 kcal/mol
20,GATATCACGTGTGGGT,0.22 kcal/mol
21,TGGAGCACGTGAATTG,0.23 kcal/mol
22,GCGTGCACGTGAGATG,0.34 kcal/mol
23,TGGATCACGTGTGTTC,0.24 kcal/mol
24,GGAGTCACGTGATGAG,0.27 kcal/mol
25,TGTAGCACGTGCTATA,-0.06 kcal/mol
26,TAGGCCACGTGGCGTT,-0.15 kcal/mol

row,Sequence,relative binding free energy
1,TGGCGCACGTGGATAT,-0.02 kcal/mol
2,TGTGGCACGTGCCTGT,-0.21 kcal/mol
3,TAATCCACGTGTGGTG,0.09 kcal/mol
4,GGGTTCACGTGTAGCA,0.24 kcal/mol
5,TGTGGCACGTGCTTTC,-0.04 kcal/mol
6,GTATGCACGTGGGTTT,-0.05 kcal/mol
7,CGGGTCACGTGGACGG,0.04 kcal/mol
8,TGGTGCACGTGAAATA,0.31 kcal/mol
9,GTAAACACGTGTCGGG,0.09 kcal/mol
10,GGTCACACGTGGTTAG,0.18 kcal/mol
11,CTGGGCACGTGGTACG,-0.35 kcal/mol
12,GGTGCCACGTGGTCGG,-0.27 kcal/mol
13,CGTTGCACGTGAAGGG,0.24 kcal/mol
14,TGTCTCACGTGGTGAT,0.17 kcal/mol
15,TGTAGCACGTGGAAGG,0 kcal/mol
16,CATTTCACGTGTATGT,0.24 kcal/mol
17,GGGTGCACGTGGTTTC,-0.03 kcal/mol
18,AGGCACACGTGGCGTG,0.01 kcal/mol
19,TTTGACACGTGGGGTG,-0.04 kcal/mol
20,TGGCGCACGTGCTTTT,-0.1 kcal/mol
21,TTGGACACGTGTTCGG,0.16 kcal/mol
22,TGACTCACGTGGTTAG,0.13 kcal/mol
23,GGAAGCACGTGGTCGG,-0.21 kcal/mol
24,TTGTTCACGTGAGTTT,0.41 kcal/mol
25,ATGTGCACGTGTGTCG,0.02 kcal/mol
26,TTTTTCACGTGACGTG,0.34 kcal/mol

row,Sequence,relative binding free energy
1,GATAGCACGTGATTGT,0 kcal/mol
2,GCTTTCACGTGGGGGG,0.16 kcal/mol
3,CCGTTCACGTGGGTGA,0.15 kcal/mol
4,GGTGTCACGTGGGGTC,0.07 kcal/mol
5,AGATTCACGTGTTACG,0.26 kcal/mol
6,AATAACACGTGTGGAG,0.09 kcal/mol
7,GGTGGCACGTGTGGTG,0.05 kcal/mol
8,CTAGTCACGTGTAGTT,0.17 kcal/mol
9,GTAACCACGTGAGGGT,0.14 kcal/mol
10,TGAAGCACGTGTGTGG,0.08 kcal/mol
11,TTAGTCACGTGGGGCG,-0.07 kcal/mol
12,TTGGCCACGTGCGTTT,-0.1 kcal/mol
13,TTGTCCACGTGGTTCT,0.11 kcal/mol
14,TGACGCACGTGTGTTA,-0.16 kcal/mol
15,TTAGACACGTGTGTTA,0.14 kcal/mol
16,CAGAGCACGTGGGGGT,-0.33 kcal/mol
17,TAAGTCACGTGGCGAT,0.09 kcal/mol
18,AGTTACACGTGAGGAG,0.28 kcal/mol
19,ATTCACACGTGGGGTG,-0.16 kcal/mol
20,TTGCTCACGTGGCTGG,0.16 kcal/mol
21,GTGTGCACGTGGATTT,0.16 kcal/mol
22,CGGTTCACGTGTGGTC,0.2 kcal/mol
23,ATTTGCACGTGGTCTA,-0.26 kcal/mol
24,AGTTCCACGTGCTGTG,0.05 kcal/mol
25,GCAGTCACGTGTAAGG,0.14 kcal/mol
26,AAGTACACGTGGTTGA,-0.06 kcal/mol

row,Sequence,relative binding free energy
1,TGGATCACGTGTCTTG,0.17 kcal/mol
2,AGGCTCACGTGTTGTG,0.11 kcal/mol
3,TATAACACGTGTATTT,-0.12 kcal/mol
4,TGCAACACGTGGTAGT,-0.03 kcal/mol
5,CTGTGCACGTGATTTT,0.13 kcal/mol
6,CAGAGCACGTGAGTGT,0.05 kcal/mol
7,AATTTCACGTGGAGAG,0.19 kcal/mol
8,TTTAACACGTGTTCTT,-0.01 kcal/mol
9,TATGGCACGTGAACTT,0.08 kcal/mol
10,TTGTCCACGTGTTGTG,-0.02 kcal/mol
11,ATTTGCACGTGGGCTT,-0.04 kcal/mol
12,TTCGACACGTGCGGGG,-0.11 kcal/mol
13,GGATGCACGTGGGATG,0 kcal/mol
14,AAGTACACGTGTGTAA,0.11 kcal/mol
15,GAAGGCACGTGTCTTT,0.2 kcal/mol
16,CTTTACACGTGGGTGC,-0.06 kcal/mol
17,ATCATCACGTGAGTTT,0.33 kcal/mol
18,TGTCTCACGTGTGCTA,0.15 kcal/mol
19,ATGTTCACGTGTAATG,0.2 kcal/mol
20,CAAATCACGTGGGGTT,0.08 kcal/mol
21,CGGGGCACGTGTAAGA,-0.08 kcal/mol
22,TTCGACACGTGGTCGT,-0.07 kcal/mol
23,TAATTCACGTGATTAT,0.41 kcal/mol
24,AGTTTCACGTGACGGG,0.51 kcal/mol
25,CATTGCACGTGGTGGT,-0.03 kcal/mol
26,TTTCGCACGTGTAGGA,0.02 kcal/mol

row,Sequence,relative binding free energy
1,TTTTGCACGTGCTGAC,0.12 kcal/mol
2,GAGGGCACGTGTTGGA,0 kcal/mol
3,CGATGCACGTGTTTGT,0 kcal/mol
4,CATGCCACGTGGTGTG,-0.26 kcal/mol
5,TAGTGCACGTGGTGAA,-0.2 kcal/mol
6,AAGCTCACGTGAGTGT,0.43 kcal/mol
7,AGGAGCACGTGGCGGC,-0.32 kcal/mol
8,TTGTACACGTGACGTG,0.15 kcal/mol
9,AACATCACGTGGGTTT,0.1 kcal/mol
10,GAGTTCACGTGTTAGC,0.29 kcal/mol
11,GGGTACACGTGGGTTC,0.09 kcal/mol
12,GGTTTCACGTGCTGAT,0.29 kcal/mol
13,TAAGGCACGTGAGAAG,0.13 kcal/mol
14,TCAGGCACGTGGGCTG,-0.23 kcal/mol
15,TTTATCACGTGTAGGC,0.11 kcal/mol
16,TCTGACACGTGTTGCG,0.15 kcal/mol
17,CGTTACACGTGGTAGG,0.02 kcal/mol
18,AATGGCACGTGGGTGA,-0.14 kcal/mol
19,TGGTACACGTGCTGCG,-0.05 kcal/mol
20,TACATCACGTGTGTGG,0.12 kcal/mol
21,AAAGGCACGTGTTGGT,-0.08 kcal/mol
22,AGATTCACGTGCATGG,0.2 kcal/mol
